# Assay results: a collection of fitness landscapes (doi:10.1126/science.1257360)
# This is one part of the list.
# B1: PhoQ; a variant is named by its letters at X, in order, P23837 (parent)
# chain: MKKLLRLFFPLSLRVRFLLATAAVVLVLSLAYGMVALIGYSVSFDKTTFRLLRGESNLFYTLAKWENNKLHVELPENIDKQSPTMTLIYDENGQLLWAQRDVPWLMKMIQPDWLKSNGFHEIEADVNDTSLLLSGDHSIQQQLQEVREDDDDAEMTHSVAVNVYPATSRMPKLTIVVVDTIPVELKSSYMVWSWFIYVLSANLLLVIPLLWVAAWWSLRPIEALAKEVRELEEHNRELLNPATTRELTSLVRNLNRLLKSERERYDKYRTTLTDLTHSLKTPLXXLQXXLRSLRSEKMSVSDAEPVMLEQISRISQQIGYYLHRASMRGGTLLSRELHPVAPLLDNLTSALNKVYQRKGVNISLDISPEISFVGEQNDFVEVMGNVLDNACKYCLEFVEISARQTDEHLYIVVEDDGPGIPLSKREVIFDRGQRVDTLRPGQGVGLAVAREITEQYEGKIVAGESMLGGARMEVIFGRQHSAPKDE
# Variants of: B1
# Assay: enrichment ratio after two sorts for PhoP signalling (ratio (wild type AVST 3.29)); higher = more functional
# Conditions: with PhoP (E. coli)
row,Variant,enrichment ratio
1,SRHV,≤ 0.25
2,PQML,≤ 0.25
3,GPML,≤ 0.25
4,WETE,≤ 0.25
5,ADIM,≤ 0.25
6,YNPV,≤ 0.25
7,QLGD,≤ 0.25
8,DMAE,≤ 0.25
9,PQHT,≤ 0.25
10,GTDH,≤ 0.25
11,AHTR,≤ 0.25
12,VITM,≤ 0.25
13,DNQR,≤ 0.25
14,GDEI,≤ 0.25
15,RSVI,≤ 0.25
16,TQDE,≤ 0.25
17,EAYL,≤ 0.25
18,HSHL,≤ 0.25
19,FDSW,≤ 0.25
20,TMME,7.32
21,ENQR,≤ 0.25
22,FQYP,≤ 0.25
23,SRLV,0.905
24,NLWK,≤ 0.25

row,Variant,enrichment ratio
1,KQYT,≤ 0.25
2,TFNS,2.57
3,HDLC,≤ 0.25
4,LPHM,≤ 0.25
5,ASSY,8.56
6,VLKD,≤ 0.25
7,HCVW,≤ 0.25
8,GLIF,≤ 0.25
9,DIED,≤ 0.25
10,SINT,0.281
11,AIPE,≤ 0.25
12,MTTN,≤ 0.25
13,VAAY,≤ 0.25
14,HMFT,≤ 0.25
15,PDQD,≤ 0.25
16,NNEG,≤ 0.25
17,LHTP,≤ 0.25
18,SIAL,15.1
19,EEAS,≤ 0.25
20,SEGG,9.05
21,KHWA,≤ 0.25
22,SFWV,≤ 0.25
23,GCMC,≤ 0.25
24,FEER,≤ 0.25

row,Variant,enrichment ratio
1,SSWW,≤ 0.25
2,LQMN,≤ 0.25
3,GTMC,≤ 0.25
4,YQNM,≤ 0.25
5,LPMN,≤ 0.25
6,QVFQ,≤ 0.25
7,HKRW,≤ 0.25
8,LDVR,≤ 0.25
9,VMDT,≤ 0.25
10,GQYY,≤ 0.25
11,GAAP,≤ 0.25
12,WNQE,≤ 0.25
13,MPWA,≤ 0.25
14,MCVV,≤ 0.25
15,SWSY,≤ 0.25
16,FVVQ,≤ 0.25
17,GMAF,2.59
18,SCVY,4.83
19,TMTF,11.5
20,HPQT,≤ 0.25
21,RSFF,≤ 0.25
22,VFHA,≤ 0.25
23,IACT,≤ 0.25
24,FCWF,≤ 0.25

row,Variant,enrichment ratio
1,TNGR,≤ 0.25
2,APDS,≤ 0.25
3,IPQW,≤ 0.25
4,GLNV,≤ 0.25
5,FLEW,≤ 0.25
6,YAKA,≤ 0.25
7,SGMR,≤ 0.25
8,LPYQ,≤ 0.25
9,KQRL,≤ 0.25
10,TLDW,≤ 0.25
11,LGMI,12.6
12,PVAC,≤ 0.25
13,LNWV,≤ 0.25
14,AVVK,0.922
15,DYSD,≤ 0.25
16,STYQ,≤ 0.25
17,AEPF,≤ 0.25
18,IKFL,≤ 0.25
19,HIRY,≤ 0.25
20,ISLF,≤ 0.25
21,EQFY,≤ 0.25
22,FEDD,≤ 0.25
23,ENRY,≤ 0.25
24,NWFL,≤ 0.25

row,Variant,enrichment ratio
1,VYEM,≤ 0.25
2,WESE,≤ 0.25
3,KRYS,≤ 0.25
4,TFMQ,≤ 0.25
5,LLGT,≤ 0.25
6,PQAL,≤ 0.25
7,EVMF,≤ 0.25
8,YMGH,≤ 0.25
9,VIPY,≤ 0.25
10,PGWM,≤ 0.25
11,FFPY,≤ 0.25
12,FNWY,≤ 0.25
13,EEFG,≤ 0.25
14,IADC,≤ 0.25
15,ADTD,≤ 0.25
16,LIPH,≤ 0.25
17,EPSF,≤ 0.25
18,PEQF,≤ 0.25
19,HRQI,≤ 0.25
20,YSYE,≤ 0.25
21,QHGC,≤ 0.25
22,YLQY,≤ 0.25
23,IMGC,≤ 0.25
24,SENR,0.957

row,Variant,enrichment ratio
1,EHDL,≤ 0.25
2,HINR,≤ 0.25
3,YHVE,≤ 0.25
4,LEYF,1.59
5,IELI,0.368
6,ERPE,≤ 0.25
7,NLRY,≤ 0.25
8,TMRT,≤ 0.25
9,RIQL,≤ 0.25
10,TTMW,≤ 0.25
11,IHHW,≤ 0.25
12,IEMV,3.63
13,VGEK,≤ 0.25
14,FCYN,≤ 0.25
15,DLKA,≤ 0.25
16,HNHF,≤ 0.25
17,HGPK,≤ 0.25
18,VKMT,≤ 0.25
19,VFWR,≤ 0.25
20,NKRH,≤ 0.25
21,QKLG,≤ 0.25
22,AEWL,4.85
23,MSFH,4.47
24,ATRE,≤ 0.25

row,Variant,enrichment ratio
1,EEAL,≤ 0.25
2,AAIN,≤ 0.25
3,LLVK,≤ 0.25
4,HDQA,≤ 0.25
5,AVLT,2.4
6,PGYH,≤ 0.25
7,VHCR,≤ 0.25
8,PSTQ,≤ 0.25
9,REDI,≤ 0.25
10,RFSR,≤ 0.25
11,YCRE,≤ 0.25
12,NMMA,≤ 0.25
13,NRYL,≤ 0.25
14,YMHI,≤ 0.25
15,LTQN,≤ 0.25
16,YLGL,≤ 0.25
17,VDWI,≤ 0.25
18,EVYL,≤ 0.25
19,IVCF,≤ 0.25
20,DMAC,≤ 0.25
21,FRSG,≤ 0.25
22,FRVA,≤ 0.25
23,PLCR,≤ 0.25
24,NRCD,≤ 0.25

row,Variant,enrichment ratio
1,DRGM,≤ 0.25
2,MESM,19
3,AALL,14.9
4,MKGM,≤ 0.25
5,YNMG,≤ 0.25
6,GEYT,0.289
7,LIYC,≤ 0.25
8,PARF,≤ 0.25
9,AHVH,≤ 0.25
10,INTG,≤ 0.25
11,TRAQ,≤ 0.25
12,EHYR,≤ 0.25
13,LHWH,≤ 0.25
14,CYFS,≤ 0.25
15,PWTR,≤ 0.25
16,ARLM,6.76
17,YYDG,≤ 0.25
18,EDAL,≤ 0.25
19,WEPC,≤ 0.25
20,ISRF,≤ 0.25
21,PSSW,≤ 0.25
22,GPIF,≤ 0.25
23,WTGG,≤ 0.25
24,TYNA,≤ 0.25

row,Variant,enrichment ratio
1,WTMF,≤ 0.25
2,TTGY,20.5
3,THEQ,≤ 0.25
4,GIME,13.3
5,AICS,18.9
6,VLCQ,≤ 0.25
7,QPQD,≤ 0.25
8,AYLG,3.91
9,FQQS,≤ 0.25
10,IVTR,≤ 0.25
11,TDRQ,≤ 0.25
12,YLSY,≤ 0.25
13,TPHY,≤ 0.25
14,YDEQ,≤ 0.25
15,YAAM,≤ 0.25
16,QSSW,≤ 0.25
17,VIMH,≤ 0.25
18,FPWP,≤ 0.25
19,NYEG,≤ 0.25
20,AEHF,≤ 0.25
21,HLER,≤ 0.25
22,RVDR,≤ 0.25
23,MMVE,≤ 0.25
24,IQKY,≤ 0.25

row,Variant,enrichment ratio
1,WSDS,≤ 0.25
2,PPWF,≤ 0.25
3,TVEF,3.81
4,APIT,≤ 0.25
5,VYDN,≤ 0.25
6,TTHG,9.57
7,APED,≤ 0.25
8,ETCH,≤ 0.25
9,KHRG,≤ 0.25
10,DQSY,≤ 0.25
11,CLFN,≤ 0.25
12,TDVW,≤ 0.25
13,GQCQ,≤ 0.25
14,KLSE,≤ 0.25
15,EIEF,≤ 0.25
16,ILTY,≤ 0.25
17,QWFS,≤ 0.25
18,LPMF,≤ 0.25
19,FEHI,≤ 0.25
20,SPSR,≤ 0.25
21,GHLD,≤ 0.25
22,DFMW,≤ 0.25
23,VTWE,≤ 0.25
24,THNT,5.72

row,Variant,enrichment ratio
1,EKAR,≤ 0.25
2,SQFQ,≤ 0.25
3,KCIT,≤ 0.25
4,YDGY,≤ 0.25
5,QNFY,≤ 0.25
6,SHKH,≤ 0.25
7,RQNS,≤ 0.25
8,ARKS,≤ 0.25
9,NNDK,≤ 0.25
10,ANER,≤ 0.25
11,AWCN,≤ 0.25
12,SDQT,≤ 0.25
13,RDFV,≤ 0.25
14,SMWT,≤ 0.25
15,LETW,≤ 0.25
16,YSPW,≤ 0.25
17,RCIY,≤ 0.25
18,DQLK,≤ 0.25
19,HNFK,≤ 0.25
20,LFLC,≤ 0.25
21,FWMR,≤ 0.25
22,HGGF,≤ 0.25
23,WMGN,≤ 0.25
24,KGVL,≤ 0.25

row,Variant,enrichment ratio
1,HLLM,≤ 0.25
2,YVGW,≤ 0.25
3,GING,≤ 0.25
4,TATT,8.46
5,HMLC,≤ 0.25
6,TEMF,5.53
7,SLHE,≤ 0.25
8,NTHI,≤ 0.25
9,NHDS,≤ 0.25
10,ECLG,≤ 0.25
11,RLYE,≤ 0.25
12,FIKK,≤ 0.25
13,LKHR,≤ 0.25
14,NLDS,≤ 0.25
15,FLTM,≤ 0.25
16,VGHY,≤ 0.25
17,DDPP,≤ 0.25
18,QVTT,≤ 0.25
19,WPWA,≤ 0.25
20,IYAA,≤ 0.25
21,LVTN,≤ 0.25
22,PIYN,≤ 0.25
23,WMVI,≤ 0.25
24,FTDH,≤ 0.25

row,Variant,enrichment ratio
1,LRLL,≤ 0.25
2,QPKP,≤ 0.25
3,FDCA,≤ 0.25
4,MRHA,≤ 0.25
5,GWLT,≤ 0.25
6,YLSQ,0.283
7,MWRH,≤ 0.25
8,KREH,≤ 0.25
9,SYDE,≤ 0.25
10,MRNG,≤ 0.25
11,WMLD,≤ 0.25
12,MPHL,≤ 0.25
13,WIGR,≤ 0.25
14,HACP,≤ 0.25
15,YMKP,≤ 0.25
16,FMLW,0.253
17,FLGD,≤ 0.25
18,EEIN,≤ 0.25
